# The supplement of paper PMC3334620
# The full ranking holds about 33,000 sequences; the median of “E-score (-0.5 to 0.5)” is about -0.035, and the highest 2% start at about 0.34. This is one part of the list.
# Target: T1, Mot3 (UniProt P54785)
# T1 sequence: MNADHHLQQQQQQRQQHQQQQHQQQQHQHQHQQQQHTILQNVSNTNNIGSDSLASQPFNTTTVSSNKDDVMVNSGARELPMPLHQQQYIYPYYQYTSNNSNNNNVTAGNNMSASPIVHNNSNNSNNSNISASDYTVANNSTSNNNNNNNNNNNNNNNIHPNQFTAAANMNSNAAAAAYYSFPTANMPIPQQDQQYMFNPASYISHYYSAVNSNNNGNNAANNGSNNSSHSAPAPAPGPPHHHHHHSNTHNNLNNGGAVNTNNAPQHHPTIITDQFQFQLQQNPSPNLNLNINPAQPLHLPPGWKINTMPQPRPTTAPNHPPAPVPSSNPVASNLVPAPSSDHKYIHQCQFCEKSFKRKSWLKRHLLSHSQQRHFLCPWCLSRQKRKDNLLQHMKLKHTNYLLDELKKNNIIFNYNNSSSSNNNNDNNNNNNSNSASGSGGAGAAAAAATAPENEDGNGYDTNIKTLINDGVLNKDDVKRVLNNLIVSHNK
# Assay: PBM E-score (8-mer binding enrichment) (E-score (-0.5 to 0.5)); higher = stronger / more preferred TF binding; most listed sequences are background and not binding sites
# Conditions: protein concentration: 200 nM; construct: GST-full length
# How it was run: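 The E-score, a modified Wilcoxon-Mann-Whitney statistic, was computed by the Universal PBM Analysis Suite for every ungapped eight-base word pooled with its reverse complement. Scans behind it were normalised with masliner after bound GST-tagged yeast transcription factors were detected with fluorescent anti-GST. The proteins, at about 100-200 nM, had been applied to universal all-10-mer Agilent arrays made double-stranded by primer extension.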
row,Sequence,PBM E-score
1,ACTAGAGG,-0.076
2,GATACTCA,-0.239
3,GACTCGCC,-0.157
4,CCGAGTGA,-0.16
5,ACGAGAGC,-0.127
6,ACTAGCTA,-0.0814
7,AGGGCTAA,-0.0945
8,CTATGACC,0.0281
9,TCGGACCA,-0.283
10,AACTATCG,-0.158
11,GCGAGATA,-0.121
12,CACGGCTA,0.0247
13,CTGGCCTA,-0.104
14,GAGCAACA,0.12
15,GACTAGGA,0.0453
16,AGTTACTA,0.0423
17,CGATCAAG,-0.0122
18,ATCTTTTG,-0.0502
19,ACTACACG,0.386
20,AGTTCTTC,-0.0277
21,CGCTTCAA,-0.235
22,CCTTTCGA,-0.0287
23,GCGCTTTA,0.0371
24,TACTCTAA,-0.088
25,CATTCGTA,0.157

row,Sequence,PBM E-score
1,AGGGGTCA,-0.151
2,ACATCATG,0.156
3,GCTGACAC,0.0408
4,AAGTTGCC,0.271
5,AAGGCTCA,0.336
6,ATGGCCCG,-0.265
7,AATAGTAA,0.0955
8,CAGGCGAA,0.148
9,AGCGGGGG,-0.24
10,ACTGGGAG,-0.216
11,GCGATAAA,0.0249
12,CGGCGAGC,-0.343
13,GCAAATTA,0.233
14,CCACTGGC,-0.133
15,AACGCGCT,0.1
16,TGACGGAA,0.0535
17,AGAGCCCT,-0.193
18,AGGCACTG,0.483
19,CGAAGACA,-0.276
20,CCTGCAAG,0.0257
21,ATAGCCGG,-0.0657
22,CCTCCATA,0.0241
23,GGCACCCA,0.29
24,CTACACAA,0.29
25,CGCTCCCA,-0.432

row,Sequence,PBM E-score
1,CCTAACTA,0.0311
2,GACAGGGA,-0.089
3,CGAGTTAG,0.0759
4,CCCGTAGG,0.0504
5,AAAGCGTT,-0.0184
6,AGCGGGAC,-0.177
7,GATTACGA,0.197
8,GCAGTGGA,-0.212
9,ACACTTAG,0.126
10,ATGAATCG,-0.0323
11,GAAAGCAC,0.123
12,AAGGCTAA,0.035
13,GATGGAGC,-0.0215
14,GACTGCCC,0.0754
15,ATGGAAAC,-0.255
16,CACTGGGG,-0.0515
17,CAGACAAA,0.171
18,ATACCCGG,0.0542
19,GCATAACC,-0.197
20,CAAGAGTC,-0.0245
21,ACATTCTG,0.0247
22,GTTTGTAA,0.223
23,CCCAGATC,-0.111
24,CACAATGC,0.104
25,AACCGCCC,-0.0284

row,Sequence,PBM E-score
1,GCGTCGTA,0.0968
2,CCTGCAGA,0.303
3,CCCACACC,-0.149
4,ACTACTCC,-0.13
5,GATGTATA,0.195
6,TCCTGGAA,0.0485
7,AGGTGACC,0.0102
8,AGCAGCAT,-0.212
9,CGAGCTGA,-0.201
10,GGTGTTCA,0.012
11,AATCGAGC,-0.092
12,CTGACGGA,-0.0993
13,ACACCAAG,0.132
14,CCTTCACA,0.208
15,CACGGCGA,0.117
16,CCAAGGGA,-0.275
17,AACTTCTG,0.00551
18,CCGCGTAC,0.16
19,ACCGACGC,0.114
20,GCTAAGGA,-0.0929
21,ACCCGCCG,-0.166
22,CGCACTGA,-0.0968
23,ACAGGACA,0.111
24,TACGAATA,0.15
25,CGACAGCG,-0.196

row,Sequence,PBM E-score
1,GGACACTA,-0.102
2,AGTATCGA,0.122
3,ACACCCAA,0.0638
4,AGGCATTG,0.264
5,ACTTTTGC,0.0944
6,GTACCTAC,0.405
7,CTCACCGA,-0.354
8,ACCTGTTA,0.167
9,AAGTTGCT,0.0629
10,AGACTAGC,-0.219
11,CTAGCGTA,-0.0757
12,AATGTGAG,0.0557
13,GTTTAAAA,0.158
14,ATGTCACA,0.233
15,TGATGGAA,0.0632
16,AAGACTAA,-0.0119
17,ATCTCGCA,0.0827
18,TCAGCCAA,-0.192
19,AGAATGCG,-0.0435
20,AGCAGCCG,-0.096
21,CGAAGGCA,0.476
22,ATGTTGGC,0.0881
23,AAGTGACC,-0.22
24,CCAACTTA,-0.0588
25,GAAGCTGC,-0.0719

row,Sequence,PBM E-score
1,ATTTCAGG,0.129
2,GCCATTGA,-0.165
3,CTCTTGGC,-0.273
4,CGCGTCAC,0.0523
5,CCTTTGAC,0.125
6,ATCCCAAC,-0.0736
7,CAAAACTG,-0.0699
8,AAAGTCGT,-0.0973
9,AAGCGGCT,-0.272
10,ACGAAAAC,0.109
11,CTGGCTTC,-0.194
12,CTATCGTC,-0.142
13,ATCATAGA,0.156
14,TAGCGCTA,-0.153
15,ATCGGTAC,-0.0819
16,AAGGACGT,0.0581
17,TATGGGGA,-0.00446
18,ACATGCCG,0.226
19,GACCTTCA,-0.083
20,ACAGCTCG,-0.105
21,CGACTGCC,-0.0133
22,ATTAAACG,0.312
23,CTAGTAAA,0.196
24,ACAGGCGA,0.0648
25,GCTCGGAC,-0.172

row,Sequence,PBM E-score
1,ATTCTTGC,-0.015
2,CGTCTGCC,-0.201
3,ACACCCGG,0.0756
4,AGTTGCAT,-0.00698
5,ACATTTCA,0.143
6,ATAGTTCA,0.0151
7,AATCCCGA,-0.0874
8,ATAATGCA,0.0624
9,GCCGGAAC,-0.32
10,CTTGCTCA,-0.16
11,ACATACAT,0.339
12,CGCAGCAC,-0.206
13,AGAGCATA,-0.0148
14,AATATGGG,-0.176
15,CGTGGAAA,0.0506
16,ACAGCAAA,0.143
17,ACGGCGCG,-0.00385
18,ATAGCCGC,-0.244
19,CGTCGACC,-0.0924
20,ACTCCATA,-0.0826
21,CACCGCAG,0.0392
22,GTAGCAAC,-0.0958
23,CACGTTGG,0.0927
24,CGTTTAGA,0.0393
25,GAGCGCCA,-0.362

row,Sequence,PBM E-score
1,CTTACACA,0.3
2,GTCACCCA,-0.07
3,AACAGGCA,0.484
4,CTGGAATA,-0.0588
5,GATATATC,-0.153
6,ACTGAGTA,0.0419
7,GTCCACAC,0.0444
8,AACTACGC,0.18
9,AAGACCAG,-0.0179
10,CGATTTTA,0.0315
11,CCGTGAAC,-0.126
12,CGCGAATA,0.0877
13,CAGAAATC,-0.0143
14,CAGACGTC,-0.141
15,ACCCACAG,-0.155
16,ATCAAGTC,-0.0213
17,AGTCTCTG,-0.257
18,ACACACCG,0.223
19,AGAAAATC,-0.0262
20,AGATCGAT,-0.0453
21,ACGATTTC,0.166
22,CAGCGGGA,-0.278
23,ACGATCTC,-0.198
24,ATATCGAA,0.0326
25,AAGAAAAC,-0.0102

row,Sequence,PBM E-score
1,ATACGGAC,-0.112
2,CTATGTCC,-0.0601
3,CCTGGTTC,0.049
4,AAGGTTCT,0.127
5,AGAAGCAT,-0.0427
6,CGTAATGC,0.201
7,TCAAGAAA,0.102
8,AATACCTA,0.22
9,CACCAAGG,-0.00468
10,GAGAAAAA,0.07
11,TCCGGTAA,0.138
12,ATTCGATA,0.0323
13,CAAGACGC,-0.082
14,GGAAAAAA,0.144
15,ATGCTACC,-0.133
16,AAAGCGAT,0.07
17,CGCTACAG,-0.141
18,GCAGGTAC,0.452
19,ACCATGGG,-0.316
